This note sets out measurements from publication PMC4336329 (PLoS ONE, 2015).

The structures appear in SMILES notation. The whole screen tested about 310,000 compounds, of which about 14,000 (4.5%) showed an effect of 50% or more. Effects have a minus sign here. The list shows a part of the results.
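Also: peak tail current of the secondary pulse compared with the same well before compound.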

The target in this assay is human ether-à-go-go-related gene (hERG) potassium channel (human, UniProt Q12809). Nature of the assay: primary screen, population patch clamp on CHO cells stably expressing hERG.
human ether-à-go-go-related gene (hERG) potassium channel, sequence (Q12809 whole entry, looked up): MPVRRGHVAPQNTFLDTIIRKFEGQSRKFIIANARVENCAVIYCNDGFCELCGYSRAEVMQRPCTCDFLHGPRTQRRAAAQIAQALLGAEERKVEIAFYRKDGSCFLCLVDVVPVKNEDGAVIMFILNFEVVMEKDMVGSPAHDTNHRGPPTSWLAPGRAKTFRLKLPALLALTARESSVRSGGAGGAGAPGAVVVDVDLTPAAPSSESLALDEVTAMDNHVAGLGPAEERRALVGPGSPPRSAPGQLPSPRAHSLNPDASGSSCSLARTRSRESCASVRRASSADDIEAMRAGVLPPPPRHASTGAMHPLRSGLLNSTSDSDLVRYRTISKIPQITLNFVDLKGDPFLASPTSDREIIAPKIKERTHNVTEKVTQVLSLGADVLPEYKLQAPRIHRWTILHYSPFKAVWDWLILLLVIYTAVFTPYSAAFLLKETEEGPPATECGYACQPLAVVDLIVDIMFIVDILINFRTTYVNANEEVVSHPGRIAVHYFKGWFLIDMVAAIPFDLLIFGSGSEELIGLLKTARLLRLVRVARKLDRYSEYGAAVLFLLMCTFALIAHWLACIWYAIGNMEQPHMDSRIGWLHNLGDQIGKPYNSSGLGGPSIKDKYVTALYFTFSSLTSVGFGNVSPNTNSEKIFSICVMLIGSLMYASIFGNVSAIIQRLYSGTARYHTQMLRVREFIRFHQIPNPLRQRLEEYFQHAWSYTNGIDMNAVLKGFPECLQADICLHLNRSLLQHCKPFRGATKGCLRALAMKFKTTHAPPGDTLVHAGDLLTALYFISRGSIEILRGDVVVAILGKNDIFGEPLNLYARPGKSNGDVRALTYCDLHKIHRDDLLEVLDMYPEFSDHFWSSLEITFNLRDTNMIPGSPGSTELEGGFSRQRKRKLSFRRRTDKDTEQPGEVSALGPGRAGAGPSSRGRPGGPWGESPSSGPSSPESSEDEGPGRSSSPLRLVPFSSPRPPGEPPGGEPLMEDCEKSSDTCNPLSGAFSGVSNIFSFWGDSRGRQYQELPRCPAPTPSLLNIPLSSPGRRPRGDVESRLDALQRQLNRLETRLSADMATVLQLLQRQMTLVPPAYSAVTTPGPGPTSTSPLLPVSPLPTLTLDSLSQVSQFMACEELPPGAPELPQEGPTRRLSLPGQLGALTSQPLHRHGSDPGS
Take `CCCS(=O)(=O)N1CCC(C(=O)NCCN2CCC(Cc3ccccc3)CC2)CC1`: the “hERG current change (%, negative = inhibition) at 10uM” value is -57.6%.

Take `CCn1c(=O)c(C(=O)NCCc2ccc(Cl)cc2)c(O)c2ccccc21`: the “hERG current change (%, negative = inhibition) at 10uM” value is on record as 17.2%.

For `O=C(Cc1ccsc1)N1CCN(S(=O)(=O)c2cc(C(F)(F)F)cc(C(F)(F)F)c2)CC1`, the “hERG current change (%, negative = inhibition) at 10uM” value came out at 1.69%.

Regarding `O=C(Cc1cn2ccsc2n1)Nc1nc2c(s1)CCCC2`, the “hERG current change (%, negative = inhibition) at 10uM” value is given as -0.221%.

For the compound `CCCCCNCc1cccn1C.Cl`, the “hERG current change (%, negative = inhibition) at 10uM” value stood at 3.62%.

Consider `C[C@H](NC(=O)c1nc[nH]c1C(=O)NC(c1ccccc1)c1ccccc1)C(=O)OC(C)(C)C`, for which the “hERG current change (%, negative = inhibition) at 10uM” value came to 8.78%.

As for `COc1ccc(-c2csc(NC(=O)C3CCCO3)n2)cc1` (centres unmarked), the “hERG current change (%, negative = inhibition) at 10uM” value was -1.6%.

In the case of `O=C(Nc1ccccc1)c1ccccc1CC[N+](=O)[O-]`, the “hERG current change (%, negative = inhibition) at 10uM” value was 3.97%.

Regarding `Cc1ccc(Cl)cc1N(CC(=O)NCc1ccccc1)S(C)(=O)=O`, the “hERG current change (%, negative = inhibition) at 10uM” value was -2.19%.

Take `Cc1cc(=O)oc2cc(OCC(=O)NC3CC(C)(C)NC(C)(C)C3)ccc12`: the “hERG current change (%, negative = inhibition) at 10uM” value is reported as -34.2%.

On to `CC1(C)Cc2nc3sc4c(SCC(=O)NC(c5ccccc5)c5ccccc5)ncnc4c3cc2CO1`, for which the “hERG current change (%, negative = inhibition) at 10uM” value is on record as 2.55%.

Turning to `CCCCCCCCN1C(=O)C(O)=C(C(C)=O)C1c1ccccn1` (centres unmarked), the “hERG current change (%, negative = inhibition) at 10uM” value is on record as 7.63%.

Take `O=C(COC(=O)c1ccccn1)Nc1ncc(C(F)(F)F)cc1Cl`: the “hERG current change (%, negative = inhibition) at 10uM” value was -11.7%.

`CCOC(=O)Nc1ccc2c(c1)N(C(=O)CCN(CC)CC)c1ccccc1S2=O.Cl` (centres unmarked): the “hERG current change (%, negative = inhibition) at 10uM” value was -18%.

Take `CCCOc1ccc2c3c(c(=O)oc2c1OCCC)CCCC3`: the “hERG current change (%, negative = inhibition) at 10uM” value is recorded as -3.67%.

Take `CCCCn1c(N)c(N(CCOC)C(=O)c2c(C)noc2C)c(=O)[nH]c1=O`: the “hERG current change (%, negative = inhibition) at 10uM” value came to 3.51%.

For `COc1cccc(NC(=O)COc2ccc(C)cc2)c1`, the “hERG current change (%, negative = inhibition) at 10uM” value was -10.5%.

Turning to `COc1ccccc1NS(=O)(=O)c1ccc2c(c1)CCN2C(=O)CCC(=O)O`, the “hERG current change (%, negative = inhibition) at 10uM” value stood at 19.4%.

`CC1(C)CC(O)CC(C)(C)N1CC(O)COCc1ccccc1` (centres unmarked): the “hERG current change (%, negative = inhibition) at 10uM” value was determined as 11.7%.

As to `O=C1C([N+](=O)[O-])=C(O)c2cccc3cccc1c23`, the “hERG current change (%, negative = inhibition) at 10uM” value worked out at 15.4%.

Turning to `ClCc1cc2ccccc2nc1Cl`, the “hERG current change (%, negative = inhibition) at 10uM” value stood at 0.612%.

In the case of `CCOC(=O)N1CCC(NC2CCCCCCC2)CC1`, the “hERG current change (%, negative = inhibition) at 10uM” value is -5.65%.

Take `Cc1ccc(N)c(C(=O)c2ccc(Br)cc2)c1`: the “hERG current change (%, negative = inhibition) at 10uM” value was 3.56%.

As for `Cc1cc(C)c(NC(=O)CSc2nc3ccncc3[nH]2)c(C)c1`, the “hERG current change (%, negative = inhibition) at 10uM” value came out at 19.5%.

For the compound `CCc1cc(=O)oc2cc(C)cc(OC(C)C(=O)NCCN3CCOCC3)c12` (centres unmarked), the “hERG current change (%, negative = inhibition) at 10uM” value came out at 4.16%.

For `Cn1cc(Cl)c(-c2nc3ccccc3[nH]2)n1`, the “hERG current change (%, negative = inhibition) at 10uM” value is -1.45%.

For the compound `CC1(C)OC(=O)C(=CNc2cccc(O)c2)C(=O)O1`, the “hERG current change (%, negative = inhibition) at 10uM” value worked out at 6.14%.

On to `COc1ccc(CCn2c(=O)[nH]c3cc(C(=O)NCCCN4CCOCC4)ccc3c2=O)cc1OC`, for which the “hERG current change (%, negative = inhibition) at 10uM” value worked out at 28.6%.

For `COc1cc(C=O)ccc1Oc1nnnn1-c1ccccc1`, the “hERG current change (%, negative = inhibition) at 10uM” value was 5.77%.

For `O=C(c1ccc(F)cc1)N1CCN(C(=O)c2cccnc2)CC1`, the “hERG current change (%, negative = inhibition) at 10uM” value was found to be 7.35%.

On to `O=C(CSc1ccccc1)NCCc1ccc(F)cc1`, for which the “hERG current change (%, negative = inhibition) at 10uM” value came out at 10.8%.

For the compound `COc1ccc(-c2noc(N3CCC(C(=O)Nc4ccccc4F)CC3)n2)cc1`, the “hERG current change (%, negative = inhibition) at 10uM” value is -1.98%.

Consider `C=CCNS(=O)(=O)c1ccc(N2C(=O)c3ccccc3C2=O)cc1`, for which the “hERG current change (%, negative = inhibition) at 10uM” value is on record as -14.8%.

For the compound `CCCNC(=O)c1ccc(S(=O)(=O)c2ccc(OC)cc2)c([N+](=O)[O-])c1`, the “hERG current change (%, negative = inhibition) at 10uM” value is given as -31.2%.

Consider `O=C(Nn1cnnc1)c1ccccc1-c1ccccc1`, for which the “hERG current change (%, negative = inhibition) at 10uM” value is listed as 8.34%.

With `COc1ccc(/C=C/C2=CC(C)(C)NC(=S)N2)cc1`, the “hERG current change (%, negative = inhibition) at 10uM” value worked out at 24.3%.

Turning to `CC(C)NC(=O)c1onc(CSc2ccccc2F)c1C(=O)O`, the “hERG current change (%, negative = inhibition) at 10uM” value was 12%.

Turning to `N#Cc1ccc(OCC(=O)NCCN2CCOCC2)cc1`, the “hERG current change (%, negative = inhibition) at 10uM” value is -11.7%.

In the case of `COc1ccc(NC(=S)N2CCNC(=O)C2CC(=O)Nc2ccc(C)cc2)cc1` (centres unmarked), the “hERG current change (%, negative = inhibition) at 10uM” value is reported as 4.88%.

Take `CN(CCc1ccccn1)C1CC(=O)N(c2ccc(Cl)cc2)C1=O` (centres unmarked): the “hERG current change (%, negative = inhibition) at 10uM” value was 6.39%.

In the case of `CCc1ccc(N=C2NC(=O)/C(=C/c3ccc(OCC(=O)O)cc3)S2)cc1`, the “hERG current change (%, negative = inhibition) at 10uM” value is recorded as 14.6%.

As to `COCCCNC(=O)Cn1c(=O)oc2cc(S(=O)(=O)N3CC(C)CC(C)C3)ccc21` (centres unmarked), the “hERG current change (%, negative = inhibition) at 10uM” value was found to be 9.37%.

Take `CC1(C)CC(=O)/C(=C(\O)Cc2ccccc2)C(=NCCCCCC(=O)O)C1`: the “hERG current change (%, negative = inhibition) at 10uM” value is -13.3%.

Consider `CC(C)N=Cc1c(O)[nH]c2ccccc12`, for which the “hERG current change (%, negative = inhibition) at 10uM” value was 2.82%.
